# According to the supplement of paper PMC8728848:
# The other results are listed elsewhere or left out.
# How the values were obtained:
# Assay in all cases: glycan array binding signal (z-score within array); higher = stronger binding
# Conditions in all cases: glycan notation: IUPAC condensed, linker removed
# [1] = target: Fuc(a1-2)[GalNAc(b1-3)]Gal
# Procedure, shortened: (§1)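 The binding signal is a Z-score computed within each array and averaged over linkers. Arrays of the same protein sequence at different concentrations or buffers were also averaged together. Data originate from 3228 arrays in the Consortium for Functional Glycomics database, kept only where the protein sequence was available.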
# Fuc(a1-3)GlcNAc = target: Fuc(a1-3)GlcNAc
# Procedure, shortened: as §1
# [2] = target: Fuc(a1-3)[Gal(b1-4)]Glc6S
# Procedure, shortened: as §1
# [3] = target: Fuc(a1-3)[Gal(b1-4)]GlcNAc
# Procedure, shortened: as §1
# [4] = target: Fuc(a1-3)[Gal(b1-4)]GlcNAc(b1-2)Man
# Procedure, shortened: as §1
# [5] = target: Fuc(a1-3)[Gal(b1-4)]GlcNAc(b1-2)Man(a1-3)[Fuc(a1-3)[Gal(b1-4)]GlcNAc(b1-2)Man(a1-6)]Man(b1-4)GlcNAc(b1-4)GlcNAc
# Procedure, shortened: as §1
# [6] = target: Fuc(a1-3)[Gal(b1-4)]GlcNAc(b1-2)Man(a1-3)[Fuc(a1-3)[Gal(b1-4)]GlcNAc(b1-2)Man(a1-6)]Man(b1-4)GlcNAc(b1-4)[Fuc(a1-6)]GlcNAc
# Procedure, shortened: as §1
# [7] = target: Fuc(a1-3)[Gal(b1-4)]GlcNAc(b1-3)Gal(b1-3)[Fuc(a1-4)]GlcNAc
# Procedure, shortened: as §1
# [8] = target: Fuc(a1-3)[Gal(b1-4)]GlcNAc(b1-3)Gal(b1-4)[Fuc(a1-3)]GlcNAc
# Procedure, shortened: as §1
# [9] = target: Fuc(a1-3)[Gal(b1-4)]GlcNAc(b1-3)Gal(b1-4)[Fuc(a1-3)]GlcNAc(b1-3)Gal(b1-4)[Fuc(a1-3)]GlcNAc
# Procedure, shortened: as §1
# [10] = target: Fuc(a1-3)[Gal(b1-4)]GlcNAc(b1-3)GalNAc
# Procedure, shortened: as §1
# [11] = target: Fuc(a1-3)[Gal(b1-4)]GlcNAc(b1-4)Gal(b1-4)[Fuc(a1-3)]GlcNAc
# Procedure, shortened: as §1
# [12] = target: Fuc(a1-3)[Gal(b1-4)]GlcNAc(b1-4)Gal(b1-4)[Fuc(a1-3)]GlcNAc(b1-4)Gal(b1-4)[Fuc(a1-3)]GlcNAc
# Procedure, shortened: as §1
# [13] = target: Fuc(a1-3)[Gal(b1-4)]GlcNAc(b1-6)GalNAc
# Procedure, shortened: as §1
# [14] = target: Fuc(a1-3)[Gal(b1-4)]GlcNAc(b1-6)[Gal(b1-3)GlcNAc(b1-3)]Gal(b1-4)Glc
# Procedure, shortened: as §1
# [15] = target: Fuc(a1-3)[Gal(b1-4)]GlcNAc6S
# Procedure, shortened: as §1
# [16] = target: Fuc(a1-3)[Gal3S(b1-4)]Glc
# Procedure, shortened: as §1
# [17] = target: Fuc(a1-3)[Gal3S(b1-4)]GlcNAc
# Procedure, shortened: as §1
# [18] = target: Fuc(a1-3)[Gal3S(b1-4)]GlcNAc6S
# Procedure, shortened: as §1
# [19] = target: Fuc(a1-3)[GalNAc(b1-4)]GlcNAc
# Procedure, shortened: as §1
# [20] = target: Fuc(a1-3)[GalNAc(b1-4)]GlcNAc6S
# Procedure, shortened: as §1
# Fuc(a1-4)GlcNAc = target: Fuc(a1-4)GlcNAc
# Procedure, shortened: as §1
# Fuc(b1-3)GlcNAc = target: Fuc(b1-3)GlcNAc
# Procedure, shortened: as §1
# Gal(a1-2)Gal = target: Gal(a1-2)Gal
# Procedure, shortened: as §1
# Gal(a1-3)Gal = target: Gal(a1-3)Gal
# Procedure, shortened: as §1
# Gal(a1-3)Gal(b1-3)GlcNAc = target: Gal(a1-3)Gal(b1-3)GlcNAc
# Procedure, shortened: as §1
# [21] = target: Gal(a1-3)Gal(b1-3)GlcNAc(b1-2)Man
# Procedure, shortened: as §1
# [22] = target: Gal(a1-3)Gal(b1-3)GlcNAc(b1-2)Man(a1-3)[Gal(a1-3)Gal(b1-3)GlcNAc(b1-2)Man(a1-6)]Man(b1-4)GlcNAc(b1-4)GlcNAc
# Procedure, shortened: as §1
# [23] = target: Gal(a1-3)Gal(b1-3)GlcNAc(b1-3)GalNAc
# Procedure, shortened: as §1
# [24] = target: Gal(a1-3)Gal(b1-3)GlcNAc(b1-6)GalNAc
# Procedure, shortened: as §1
# [25] = target: Gal(a1-3)Gal(b1-3)[Fuc(a1-4)]GlcNAc(b1-2)Man(a1-3)[Gal(a1-3)Gal(b1-3)[Fuc(a1-4)]GlcNAc(b1-2)Man(a1-6)]Man(b1-4)GlcNAc(b1-4)GlcNAc
# Procedure, shortened: as §1
# Gal(a1-3)Gal(b1-4)Glc = target: Gal(a1-3)Gal(b1-4)Glc
# Procedure, shortened: as §1
# Gal(a1-3)Gal(b1-4)GlcNAc = target: Gal(a1-3)Gal(b1-4)GlcNAc
# Procedure, shortened: as §1
# [26] = target: Gal(a1-3)Gal(b1-4)GlcNAc(b1-2)Man
# Procedure, shortened: as §1
# [27] = target: Gal(a1-3)Gal(b1-4)GlcNAc(b1-2)Man(a1-3)[Gal(a1-3)Gal(b1-4)GlcNAc(b1-2)Man(a1-6)]Man(b1-4)GlcNAc(b1-4)GlcNAc
# Procedure, shortened: as §1
# [28] = target: Gal(a1-3)Gal(b1-4)GlcNAc(b1-3)GalNAc
# Procedure, shortened: as §1
# [29] = target: Gal(a1-3)Gal(b1-4)GlcNAc(b1-6)GalNAc
# Procedure, shortened: as §1
binder,measurement,setting,value
DBA (Dolichos biflorus) (protein) ANIQSFSFKNFNSPSFILQGDATVSSGKLQLTKVKENGFPLRFPSGRAFYSSPIQIYDKFTGAVASWATSFTVKISAPSKASFADGIAFALVPVGSEPRRNGGYLGVFDSDVYNNSAQTVAVEFDTLSNSGWDPSMKHIGIDVNSIKSIATVSWDLANGENAEILITYNAATSLLVVSLVHPSRRTSYILSERVDITNELPEYVGVGFSATTGLSEGYIETHDVLSWSFASRLPDDSTAEPLDLARYLVRNVL,glycan array binding signal (z-score),[1],-0.149
same,glycan array binding signal (z-score),Fuc(a1-3)GlcNAc,-0.09
same,glycan array binding signal (z-score),[2],-0.037
same,glycan array binding signal (z-score),[3],-0.11
same,glycan array binding signal (z-score),[4],-0.116
same,glycan array binding signal (z-score),[5],-0.081
same,glycan array binding signal (z-score),[6],0.13
same,glycan array binding signal (z-score),[7],-0.071
same,glycan array binding signal (z-score),[8],-0.061
same,glycan array binding signal (z-score),[9],0.005
same,glycan array binding signal (z-score),[10],-0.043
same,glycan array binding signal (z-score),[11],-0.19
same,glycan array binding signal (z-score),[12],-0.193
same,glycan array binding signal (z-score),[13],-0.011
same,glycan array binding signal (z-score),[14],-0.079
same,glycan array binding signal (z-score),[15],-0.1
same,glycan array binding signal (z-score),[16],-0.104
same,glycan array binding signal (z-score),[17],-0.127
same,glycan array binding signal (z-score),[18],-0.015
same,glycan array binding signal (z-score),[19],-0.114
same,glycan array binding signal (z-score),[20],-0.109
same,glycan array binding signal (z-score),Fuc(a1-4)GlcNAc,-0.115
same,glycan array binding signal (z-score),Fuc(b1-3)GlcNAc,-0.112
same,glycan array binding signal (z-score),Gal(a1-2)Gal,-0.133
same,glycan array binding signal (z-score),Gal(a1-3)Gal,-0.158
same,glycan array binding signal (z-score),Gal(a1-3)Gal(b1-3)GlcNAc,-0.124
same,glycan array binding signal (z-score),[21],-0.087
same,glycan array binding signal (z-score),[22],0.127
same,glycan array binding signal (z-score),[23],-0.089
same,glycan array binding signal (z-score),[24],0.047
same,glycan array binding signal (z-score),[25],0.092
same,glycan array binding signal (z-score),Gal(a1-3)Gal(b1-4)Glc,-0.119
same,glycan array binding signal (z-score),Gal(a1-3)Gal(b1-4)GlcNAc,-0.113
same,glycan array binding signal (z-score),[26],-0.132
same,glycan array binding signal (z-score),[27],0.082
same,glycan array binding signal (z-score),[28],-0.096
same,glycan array binding signal (z-score),[29],-0.118
